# Reference: PMC9911399, “Two distinct binding modes provide the RNA-binding protein RbFox with extraordinary sequence specificity”
# Changes are numbered by the printed parent chain; changes in the protein carry UniProt numbers. Some of the results follow.
# T1: RBFOX1 RRM (Homo sapiens, UniProt Q9NWB1 109-208)
# T1 sequence: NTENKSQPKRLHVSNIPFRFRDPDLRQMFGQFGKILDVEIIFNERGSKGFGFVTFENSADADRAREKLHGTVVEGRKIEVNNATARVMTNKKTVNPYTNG
# B1: AUGUCAC (DNA:RNA)
# RNA: GGGAGACCGGAAUUCAGAUUGUCCAUGUCACUUAAAUCCCGUCGUAGCCACCA
# DNA 1: CAATCTGAATTCCGGTCTCCC
# DNA 2: TGGTGGCTACGACGGGATT
# B2: AAAUGCA (DNA:RNA)
# RNA: B1 RNA with U26A, G27A, C29G, A30C, C31A
# DNA 1: CAATCTGAATTCCGGTCTCCC
# DNA 2: TGGTGGCTACGACGGGATT
# B3: AGUACCC (DNA:RNA)
# RNA: B1 RNA with U26G, G27U, U28A, A30C
# DNA 1: CAATCTGAATTCCGGTCTCCC
# DNA 2: TGGTGGCTACGACGGGATT
# B4: AGCAUUC (DNA:RNA)
# RNA: B1 RNA with U26G, G27C, U28A, C29U, A30U
# DNA 1: CAATCTGAATTCCGGTCTCCC
# DNA 2: TGGTGGCTACGACGGGATT
# B5: GCGCCAG (DNA:RNA)
# RNA: B1 RNA with A25G, U26C, U28C, C31G
# DNA 1: CAATCTGAATTCCGGTCTCCC
# DNA 2: TGGTGGCTACGACGGGATT
# B6: CCUGGUU (DNA:RNA)
# RNA: GGGAGACCGGAAUUCAGAUUGUCCCCUGGUUUUAAAUCCCGUCGUAGCCACCA
# DNA 1: CAATCTGAATTCCGGTCTCCC
# DNA 2: TGGTGGCTACGACGGGATT
# B7: UCCCGUC (DNA:RNA)
# RNA: B6 RNA with C25U, U27C, G28C, U31C
# DNA 1: CAATCTGAATTCCGGTCTCCC
# DNA 2: TGGTGGCTACGACGGGATT
# B8: ACAUCCA (DNA:RNA)
# RNA: B1 RNA with U26C, G27A, A30C, C31A
# DNA 1: CAATCTGAATTCCGGTCTCCC
# DNA 2: TGGTGGCTACGACGGGATT
# B9: GCGUGGC (DNA:RNA)
# RNA: B1 RNA with A25G, U26C, C29G, A30G
# DNA 1: CAATCTGAATTCCGGTCTCCC
# DNA 2: TGGTGGCTACGACGGGATT
# B10: CGCGAAU (DNA:RNA)
# RNA: B6 RNA with C26G, U27C, G29A, U30A
# DNA 1: CAATCTGAATTCCGGTCTCCC
# DNA 2: TGGTGGCTACGACGGGATT
# B11: GUCUCCG (DNA:RNA)
# RNA: B1 RNA with A25G, G27C, A30C, C31G
# DNA 1: CAATCTGAATTCCGGTCTCCC
# DNA 2: TGGTGGCTACGACGGGATT
# B12: GCAUAUU (DNA:RNA)
# RNA: B6 RNA with C25G, U27A, G28U, G29A
# DNA 1: CAATCTGAATTCCGGTCTCCC
# DNA 2: TGGTGGCTACGACGGGATT
# B13: GGAAGCA (DNA:RNA)
# RNA: B6 RNA with C25G, C26G, U27A, G28A, U30C, U31A
# DNA 1: CAATCTGAATTCCGGTCTCCC
# DNA 2: TGGTGGCTACGACGGGATT
# B14: UGCAGGG (DNA:RNA)
# RNA: B6 RNA with C25U, C26G, U27C, G28A, U30G, U31G
# DNA 1: CAATCTGAATTCCGGTCTCCC
# DNA 2: TGGTGGCTACGACGGGATT
# B15: CGAAUGA (DNA:RNA)
# RNA: B6 RNA with C26G, U27A, G28A, G29U, U30G, U31A
# DNA 1: CAATCTGAATTCCGGTCTCCC
# DNA 2: TGGTGGCTACGACGGGATT
# B16: UCUGAUA (DNA:RNA)
# RNA: B6 RNA with C25U, G29A, U31A
# DNA 1: CAATCTGAATTCCGGTCTCCC
# DNA 2: TGGTGGCTACGACGGGATT
# B17: GUUAAUG (DNA:RNA)
# RNA: B6 RNA with C25G, C26U, G28A, G29A, U31G
# DNA 1: CAATCTGAATTCCGGTCTCCC
# DNA 2: TGGTGGCTACGACGGGATT
# B18: GGUAUGU (DNA:RNA)
# RNA: B6 RNA with C25G, C26G, G28A, G29U, U30G
# DNA 1: CAATCTGAATTCCGGTCTCCC
# DNA 2: TGGTGGCTACGACGGGATT
# B19: AGUCUCG (DNA:RNA)
# RNA: B1 RNA with U26G, G27U, U28C, C29U, A30C, C31G
# DNA 1: CAATCTGAATTCCGGTCTCCC
# DNA 2: TGGTGGCTACGACGGGATT
# B20: GCAAAGG (DNA:RNA)
# RNA: B6 RNA with C25G, U27A, G28A, G29A, U30G, U31G
# DNA 1: CAATCTGAATTCCGGTCTCCC
# DNA 2: TGGTGGCTACGACGGGATT
# Target: T1, RBFOX1 RRM
# Assay: EMSA; HiTS-Eq, 1 nM pool, 10 min; buffer printed only for the single-RNA assays: 10 mM Tris pH 7.5, 150 mM NaCl, 3.4 mM EDTA, 0.001% NP-40, 30 C
# Details: tags: His6 N-terminal (pET28a); label: 5' 32P
# In short: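 Purified RbFox RRM, wild type or mutant, was incubated for 10 min in 50 µL with 1 nM of a 5′-radiolabelled RNA pool carrying 7 randomized nucleotides, whose flanks were annealed to DNA oligonucleotides, over a series of increasing protein concentrations. Unbound RNA was resolved on 8% native PAGE, cut out, reverse-transcribed, barcoded by PCR and sequenced on an Illumina HiSeq 2500. Relative association constants were derived from changes in read counts for each RNA species versus the control reaction and normalised to the cognate motif.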
row,Binder,binding signal
1,B1,0.0152 KA relative to UGCAUGU
2,B2,0.00973 KA relative to UGCAUGU
3,B3,0.00349 KA relative to UGCAUGU
4,B4,0.00595 KA relative to UGCAUGU
5,B5,0.0189 KA relative to UGCAUGU
6,B6,0.0179 KA relative to UGCAUGU
7,B7,0.0051 KA relative to UGCAUGU
8,B8,0.000399 KA relative to UGCAUGU
9,B9,0.0197 KA relative to UGCAUGU
10,B10,0.0101 KA relative to UGCAUGU
11,B11,0.0144 KA relative to UGCAUGU
12,B12,0.00375 KA relative to UGCAUGU
13,B13,0.0162 KA relative to UGCAUGU
14,B14,0.0139 KA relative to UGCAUGU
15,B15,0.0187 KA relative to UGCAUGU
16,B16,0.00948 KA relative to UGCAUGU
17,B17,0.0118 KA relative to UGCAUGU
18,B18,0.0195 KA relative to UGCAUGU
19,B19,0.0143 KA relative to UGCAUGU
20,B20,0.00814 KA relative to UGCAUGU
